PubChem BioAssay AID1452 (National Center for Advancing Translational Sciences (NCATS), 2008)
The whole screen tested about 150,000 compounds, of which about 190 (0.13%) were called active. Inconclusive means that the source gave no clear call. Such entries were picked first, then a sample of the others. The call rests on the fitted dose curve; in most records, active means well fitted inhibition curve with a large enough effect; inconclusive means small, poorly fitted or top-dose-only effect; inactive means flat fitted curve, though single readings scatter. Potencies of inconclusive entries are doubtful fits and often do not repeat.

The compounds below were run against Polyunsaturated fatty acid lipoxygenase ALOX12 (Homo sapiens) (UniProt P18054) (assay: qHTS Assay for Inhibitors of 12-hLO (12-human lipoxygenase)). Settings: purified 12-hLO, xylenol orange hydroperoxide absorbance; series mostly up to 57.1 µM.
Sequence of UniProt P18054 (P18054 whole entry, looked up): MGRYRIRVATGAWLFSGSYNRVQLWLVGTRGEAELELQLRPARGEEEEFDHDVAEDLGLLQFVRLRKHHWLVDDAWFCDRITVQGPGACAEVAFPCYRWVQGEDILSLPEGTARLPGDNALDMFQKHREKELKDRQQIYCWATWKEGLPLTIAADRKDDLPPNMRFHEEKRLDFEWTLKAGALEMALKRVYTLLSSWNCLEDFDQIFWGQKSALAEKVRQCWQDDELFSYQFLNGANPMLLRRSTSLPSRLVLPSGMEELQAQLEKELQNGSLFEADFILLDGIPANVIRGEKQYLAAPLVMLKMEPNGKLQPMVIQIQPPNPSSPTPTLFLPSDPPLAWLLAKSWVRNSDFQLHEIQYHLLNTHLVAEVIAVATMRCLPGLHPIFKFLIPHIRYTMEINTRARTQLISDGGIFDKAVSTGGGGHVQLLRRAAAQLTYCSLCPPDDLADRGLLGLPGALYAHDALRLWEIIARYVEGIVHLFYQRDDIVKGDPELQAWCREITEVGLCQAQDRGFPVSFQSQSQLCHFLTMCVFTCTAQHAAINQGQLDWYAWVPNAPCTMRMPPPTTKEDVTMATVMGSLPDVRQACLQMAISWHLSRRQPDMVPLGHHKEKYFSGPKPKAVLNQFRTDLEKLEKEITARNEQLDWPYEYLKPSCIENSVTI
In short: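 Xylenol orange chromogenic assay: hydroperoxide from 12hLO oxidises Fe(II), giving red-shifted Fe(III)-XO absorbance. Conditions: 150 nM enzyme, 40 uM arachidonic acid, 25 mM Hepes pH 7.0, 0.01% Triton X-100, 30 min, room temperature.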
Further: nearly all actives have a fitted effect of over 55% in size.
Potency means the concentration at half of the fitted maximal effect; tags describe the fitted curve by direction and shape.

Structure (SMILES) | Potency
Oc1c(CN2CCc3ccccc3C2)cc(Cl)c2cccnc12 | inconclusive: 5.01 µM [inhibitor, partial curve]
CCOc1cc(CNc2ccc(N3CCN(C(C)=O)CC3)cc2)cc(Br)c1OC | inconclusive: 22.4 µM [inhibitor, single point]
Cc1ccccc1C(=O)NC(=S)Nc1ccccc1C(F)(F)F | inconclusive: 7.94 µM [inhibitor, partial curve]
CCCc1cc(=O)[nH]c(SCC(=O)N(C)CC(=O)Nc2ccc(C)cc2)n1 | inactive
CCOC(=O)CN/C=C(\C#N)c1ccccc1 | inactive
CN1CCN(C(=O)c2cnn3c(C(F)(F)F)cc(-c4cccs4)nc23)CC1 | inactive
Cc1ccc(S(=O)(=O)c2c(C)nn(C(C)(C)C)c2OC(=O)c2ccco2)cc1 | inconclusive: 17.8 µM [inhibitor, partial curve]
Cc1cc2c(=O)n(Cc3ccco3)c(SCC(=O)c3ccc(Cl)s3)nc2s1 | inconclusive: 11.2 µM [inhibitor, partial curve]
CCc1ccc(-c2cc(C(=O)NCc3ccco3)c3ccccc3n2)s1 | inconclusive: 20 µM [inhibitor, single point]
O=C(c1cnccn1)N1CCC[C@@]2(CCN(c3ccccn3)C2)C1 | inactive
CC1(CCc2ccccc2)NC(=S)N(c2ccccc2)N1 (stereo unspecified) | inconclusive: 0.282 µM [inhibitor, full curve]
CC(C)(C)N1C(=O)Cc2c1nc(N)c1c(N)nc(N3CCCCC3CO)c(C#N)c21 (stereo unspecified) | inconclusive: 28.2 µM [inhibitor, partial curve]
Oc1ccc(NCc2ccccc2OCc2ccccc2F)cc1 | inconclusive: 12.6 µM [inhibitor, partial curve]
S=c1[nH]nc(CSCc2ccc(Cl)cc2Cl)n1-c1ccccc1 | inconclusive: 39.8 µM [inhibitor, single point]
CCc1ccc(CNc2ccc(O)cc2)cc1 | inconclusive: 7.94 µM [inhibitor, partial curve]
Cc1cc(C(=O)CN2C(=O)CCC2=O)c(C)n1Cc1ccccc1 | inactive
COCC(=O)N1CCC2(CC1)CN(Cc1cc(C(F)(F)F)cc(C(F)(F)F)c1)C2 | inactive
COc1cc(C=O)ccc1OCCCOc1ccc([N+](=O)[O-])cc1 | inactive
COc1ccc(C(=O)Nc2nc3c(s2)CCCC3)cc1S(=O)(=O)N1CCCc2ccccc21 | inactive
COc1cc(NC(=S)NC(=O)c2ccccc2C)ccc1NC(=O)c1cccs1 | inconclusive: 14.1 µM [inhibitor, partial curve]
COc1ccc(-c2[nH]ncc2-c2ccc(Cl)cc2)c(O)c1 | inconclusive: 28.2 µM [inhibitor, partial curve]
CCn1c(C(=O)OC)cc2c1ccn2-c1ccc(F)cc1 | inconclusive: 14.1 µM [inhibitor, partial curve]
O=C1C(=O)N(Cc2ccc(Cl)c(Cl)c2)c2ccccc21 | inconclusive: 22.4 µM [inhibitor, partial curve]
O=C(COc1ccc(Cl)cc1)NCCSCc1cccc(Cl)c1 | inconclusive: 2.82 µM [inhibitor, partial curve]

Structure (SMILES) | Potency
O=C(Nc1ccc(Br)cc1)N1CCCCCCC1 | inactive
Cc1ccccc1NC(=S)NCCc1ccccc1 | inconclusive: 8.91 µM [inhibitor, partial curve]
O=C(Nc1ccc(Cl)cc1)[C@@H]1[C@@H]2C(=O)N(c3ccc(Cl)cc3Cl)C(=O)[C@@H]2[C@H]2C=CC=NN21 | inconclusive: 2.82 µM [inhibitor, full curve, poor fit]
CCOc1cc(NC(=S)Nc2ccccc2OC)c(OCC)cc1NC(=O)c1ccccc1C | inconclusive: 25.1 µM [inhibitor, partial curve]
COc1ccc(-c2cn3cc(C)ccc3n2)cc1Br | inconclusive: 35.5 µM [inhibitor, single point]
C=CC(C1=CC(=O)C(OC)=C(OC)C1=O)c1ccccc1 (stereo unspecified) | inconclusive: 2.82 µM [inhibitor, full curve]
O=C(Oc1ccc(C(=S)N2CCOCC2)cc1Br)c1cc(Cl)ccc1Cl | inactive
C/C(=C\C(=O)c1ccc(F)cc1)Nc1ccc(N2CCOCC2)cc1 | inconclusive: 22.4 µM [inhibitor, single point]
COc1cc(N=c2ssnc2Cl)cc(OC)c1OC | inconclusive: 25.1 µM [inhibitor, single point]
CC(C)Cn1c(N)c(C(=O)NCc2cccs2)c2nc3ccccc3nc21 | inconclusive: 28.2 µM [inhibitor, single point]
COc1ccc(NC(=S)N/N=C2\CC(C)(C)Oc3ccc(O)cc32)cc1 | inconclusive: 25.1 µM [inhibitor, single point]
COc1cc2c3nnc(-c4ccc(F)cc4)c-3cn(Cc3ccc(F)cc3)c2cc1OC | inconclusive: 35.5 µM [inhibitor, single point]
Cc1ccccc1Cn1cc(NC(=O)COc2ccccc2)cn1 | inactive
Cc1cccc(CNc2ccnc(-c3ccc(N(C)C)cc3)n2)c1 | inconclusive: 39.8 µM [inhibitor, single point]
Cc1cc(C)c2cc(CN(CCO)C(=O)Nc3ccc(Cl)cc3)c(=O)[nH]c2c1 | inconclusive: 10 µM [inhibitor, partial curve]
COc1ccc(N2CCN(C(=O)c3ccc(NS(=O)(=O)c4ccc(F)cc4)cc3)CC2)cc1 | inactive
N#C/C(=C/c1ccc(N2CCCCCC2)o1)c1ccc(Cl)cc1 | inconclusive: 20 µM [inhibitor, single point]
CCOC(=O)CC(=O)CSc1nc2ccc(C)cc2cc1C#N | inconclusive: 10 µM [inhibitor, partial curve]
O=C(O)CSc1nc(-c2ccccc2)nc2c1oc1ccccc12 | inactive
Fc1ccccc1COc1ccc(/C=N/NC(=S)NCc2ccccc2)cc1 | inconclusive: 25.1 µM [inhibitor, single point]
COc1cc(C2C=C(C34CC5CC(CC(C5)C3)C4)NC(=S)N2)cc(OC)c1OC (stereo unspecified) | active: 11.2 µM
CCOc1ccc(NC(=O)CSc2nnc(C(C)C)n2CC)cc1 | inactive
Cc1cc(/C=N/NC(N)=S)c(C)n1-c1ccc(Cl)cc1 | inconclusive: 31.6 µM [inhibitor, single point]
CCCOC(=O)c1ccc(Oc2c(-c3ccc(OCC)cc3O)n[nH]c2C)cc1 | inconclusive: 1.26 µM [inhibitor, full curve, poor fit]

Structure (SMILES) | Potency
COc1ccccc1NC(=O)CCSCCC(=O)Nc1ccccc1OC | inactive
N#Cc1c(C(F)(F)F)cc(-c2ccco2)nc1SCc1ccccn1 | inconclusive: 17.8 µM [inhibitor, partial curve]
CCc1ccc2c(c1)c1nc(C)sc1n2CC | inconclusive: 3.16 µM [inhibitor, full curve]
COc1ccc2ccccc2c1C1CC(=O)N2CN(C)CSC2=C1C#N (stereo unspecified) | inconclusive: 22.4 µM [inhibitor, partial curve]
S=c1[nH]nc(C2CCCCC2)n1/N=C/C=C/c1ccccc1 | inconclusive: 39.8 µM [inhibitor, single point]
COc1ccc2nc(SCC(=O)Nc3ccc(S(=O)(=O)N4CCCC4)cc3)c(C#N)cc2c1 | inactive
CSc1nc2c(c(-c3ccc(O)cc3)c1C#N)CCC2 | inconclusive: 28.2 µM [inhibitor, single point]
COc1cccc(/C=N/N2C(=O)CSC2=S)c1O | inconclusive: 5.01 µM [inhibitor, partial curve]
COc1ccc(C(=O)NC2CCCCCC2)cc1S(=O)(=O)Nc1ccc(Br)cc1 | inconclusive: 1.41 µM [inhibitor, partial curve]
COC(=O)CNC(c1ccccc1)c1cc(Br)ccc1NC(=O)CCN1CCOCC1 (stereo unspecified) | inconclusive: 1.26 µM [inhibitor, full curve, poor fit]
S=c1nc2ccccc2c2nc(-c3ccccc3)[nH]n12 | inconclusive: 31.6 µM [inhibitor, single point]
O=C(O)c1cccc(NC(=S)NC(=O)C(c2ccccc2)c2ccccc2)c1 | inconclusive: 17.8 µM [inhibitor, partial curve]
O=C(O)C1CCCN1C(=O)Nc1ccc(F)cc1 (stereo unspecified) | inconclusive: 6.31 µM [inhibitor, single point]
Oc1cccc2ccc(SSc3ccc4cccc(O)c4n3)nc12 | inconclusive: 3.16 µM [inhibitor, single point]
Cc1cc(C(=O)N[C@@H](c2ccccc2)[C@]2(C)C[C@H]2[C@@H](C)C(=O)Nc2ccc3ccccc3c2)n(C)n1 | inconclusive: 5.01 µM [inhibitor, full curve]
Cc1cccc(NC(=S)N/N=C2/CCCCc3ccccc32)c1 | inconclusive: 39.8 µM [inhibitor, single point]
CC1(C)CNC(=O)c2sc(N3CCCCC3)nc2C1 | inactive
COC(=O)c1sc(Nc2ccccc2)nc1C | inactive
Brc1ccc(-c2cn3ccccc3n2)s1 | inconclusive: 22.4 µM [inhibitor, single point]
COc1ccc(NC(=O)c2sccc2SCc2cccc(C(F)(F)F)c2)cc1 | inactive
Cc1ccc(C(=O)N2CCN(c3ccc(NC(=S)NC(=O)Cc4ccccc4)cc3)CC2)cc1 | inconclusive: 15.8 µM [inhibitor, partial curve]
COc1cc(N=c2ssnc2Cl)cc(OC)c1 | active: 10 µM
CCOc1ccc(-c2n[nH]c(C)c2Oc2ccc(OC)cc2)c(O)c1 | inconclusive: 8.91 µM [inhibitor, partial curve]
